Results taken from PubChem BioAssay AID1963576 (National Center for Advancing Translational Sciences (NCATS), 2024).
Screen size: about 46,000 compounds; about 60 (0.1%) were called active. Not shown: some 3% with an inconclusive outcome. Calls come from the whole dose curve; as a rule, active = well fitted inhibition curve with a large enough effect; inconclusive = small, poorly fitted or top-dose-only effect; inactive = no such curve, though single readings can be large or run the other way. This is one part of the list.

assay: Primary qHTS assay for Inhibitors of ovarian cancer metastasis using an organotypic tumor microenvironment (TME) model.; note: nearly all actives have a fitted effect of over 65% in size;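 for activity change, negative = inhibition: plate controls were DMSO wells for no effect and tomatine positive control wells for full effect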; conditions: SKOV3ip1-GFP adhesion/invasion on 3D omental model, fluorescence; series mostly up to 45.8 µM; activity change, negative = inhibition: at the top concentration
Summary of the method: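 qHTS, 4-pt dose (0.36-46 umol/L); SKOV3ip1-GFP, 1,200 cells/well, no FBS; primary omental fibroblast/mesothelial co-culture 48 h pre-grown; 2 h RT + 16 h 37 C; PBS wash, 4% PFA; GFP count 488/509 nm.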

Activity change, negative = inhibition, inactive:
O=S(=O)(NCCc1csc2nc(-c3ccccc3)nn12)c1ccc(Cl)s1 -6.63%
COc1ccc2c(CNC3CCCCCC3)c(C(=O)O)n(Cc3cccc(F)c3)c2c1 -0.148%
Cc1ccc(-c2noc(CN(C(=O)COc3cc(C)cc(C)c3C)C(C)C)n2)cc1 -2.46%
COc1ccc(-c2noc(CNS(=O)(=O)c3ccc(Br)cc3)n2)cc1OC 3.28%
CCOC(=O)c1c(C)[nH]c(CCC(=O)Nc2ccc(Cl)cc2C)c1C -9.83%
Cc1ccc(CNC(=O)c2nnn(CC(=O)Nc3cc(C)ccc3C)c2N)cc1 -1.03%
CSCCC(NS(=O)(=O)c1ccc2c(c1)oc(=O)n2C)C(=O)N1CCN(c2cccc(Cl)c2)CC1 (stereo not given) -7.52%
COc1ccc(CCNC(=O)c2cnc3sc(N4CCCC4)nn3c2=O)cc1OC 11.9%
CCOc1ccc(-c2cc(-c3nc(-c4cc(OC)c(OC)c(OC)c4)no3)[nH]n2)cc1 -3.12%
COc1cc(NC(=O)c2cc3ccccn3n2)cc(OC)c1OC 0.939%
CCc1ccccc1NS(=O)(=O)c1ccc(NC(=O)N2CCCC2)cc1 14.4%
Cc1ccc(CN(Cc2ccco2)C(=O)COc2ccc(Cl)cc2)o1 -3.2%
CCOC(=O)c1cc(-c2ccc(F)cc2)n(CCC(=O)NCCc2ccc(C)cc2)c1C -8.08%
Fc1ccc(-c2noc3ncnc(NCC4CCN(Cc5ccc(Cl)cc5)CC4)c23)cc1 -11.9%
Cc1cc2nc3c(=O)[nH]c(=O)nc-3n(CC(O)C(O)C(O)CO)c2cc1C (stereo not given) -6.38%
Cc1ccc2cc3c(N)nn(C(=O)c4cccc(F)c4)c3nc2c1 -32.9%
Cc1cc2c(cc3c(SCc4nc(-c5ccccc5)oc4C)nnc(C)n32)o1 2.83%
Cc1ccc(N2CCN(S(=O)(=O)c3ccc(F)c(C(=O)Nc4ccc(Cl)cc4Cl)c3)CC2C)cc1 (stereo not given) 19.6%
Cc1cc(C)cc(NC(=O)Cn2nnc(-c3nc(-c4ccncc4)no3)c2N)c1 -6.25%
CCn1ccc2c(OCC(=O)Nc3ccccc3C)cccc2c1=O -2.87%
COc1cccc(CNC(=O)c2cc(C)nc3c2c(C)nn3-c2cccc(F)c2)c1 -5.82%
COc1ccc(S(=O)(=O)Nc2ccc3c(c2)CCCN3S(=O)(=O)c2ccc(C)cc2)cc1F 4.34%
COc1ccc(N2CCN(C(=O)c3cccc(NC(=O)c4nsc5ccccc45)c3)CC2)cc1 0.164%
CCC(CC)C(=O)Nc1nc2c(s1)CC(C)CC2 (stereo not given) 1.17%
COc1ccc(-n2nnnc2C2CCN(S(=O)(=O)c3ccc(C(C)(C)C)cc3)CC2)cc1 3.56%
Cc1ccc(S(=O)(=O)NCCc2cn3ccsc3n2)cc1 4.15%
COc1cc(-c2nn(C3CCC(N4CCN(C(C)=O)CC4)CC3)c3ncnc(N)c23)ccc1NC(=O)c1cc2ccccc2n1C (stereo not given) 0.781%
O=C(COCc1cc(-c2ccc3c(c2)OCO3)on1)N1CCN(c2ccccc2)CC1 -9.99%
CCc1ccccc1NC(=O)C1CCCN(c2ncnc3onc(C)c23)C1 (stereo not given) 11.3%
COc1ccc(CNC(=O)c2ccc(CS(=O)Cc3ccccc3Cl)o2)cc1 (stereo not given) -9.39%
COc1ccc(NC(=O)CCc2nnc3n(CC(C)C)c(=O)c4ccccc4n23)cc1 -4.27%
Cc1ccc(NC(=O)Cn2ccn(-c3ccc(F)c(F)c3)c(=O)c2=O)cc1C -5.68%
Cc1ccc(-n2nc(C(=O)N3CCN(c4cc(Cl)ccc4C)CC3)c3c4ccccc4n(C)c3c2=O)cc1 -5.7%
O=C(c1ccc(CSc2nc3ccncc3n2Cc2ccccc2)cc1)N1CCCCCC1 9%
O=c1c(S(=O)(=O)c2cccc(Cl)c2)cn(Cc2ccccc2)c2cc(N3CCOCC3)c(F)cc12 2.35%
Cc1cccc(NC(=O)C(NS(=O)(=O)c2ccc3c(c2)oc(=O)n3C)C(C)C)c1 (stereo not given) 0.209%
CC(C)c1ccc(OCC(=O)N(Cc2ccc(N(C)C)cc2)C2CCS(=O)(=O)C2)cc1 (stereo not given) 3.09%
C=Cc1ccc(CSc2nc(-c3ccc(C)cc3)nc3c2Cc2c(CO)cnc(C)c2O3)cc1 -3.55%
CCc1ccc(NC(=O)Cn2c(=O)n(Cc3ccco3)c(=O)c3cccnc32)cc1 -8.39%
Cc1cc(C)c2nc(N(Cc3cccnc3)C(=O)CCOc3ccccc3)sc2c1 7.33%
CCOc1ccc(S(=O)(=O)Nc2nc3ccccc3nc2Nc2ccc(OC)cc2)cc1 -3.94%
Cc1ccc2nc(-c3cccnc3)c(Nc3ccccc3C)n2c1 -2.61%
O=C1NC(=O)C(=Cc2ccc(-c3ccc(F)cc3)o2)S1 -18.4%
CCOC(=O)c1c(SCC(=O)Nc2cc(Cl)cc(Cl)c2)nc(=O)[nH]c1C 17.6%

outcome, inactive:
Cc1cc(C)cc(NC(=O)CSc2nnc(-c3cc4occc4n3C)n2-c2ccccc2C)c1
COC(=O)c1ccc(OC)c(CN2C(=O)N(c3ccc(C(C)=O)cc3)S(=O)(=O)c3ccccc32)c1
O=C(CN1C(=O)COc2ccc(S(=O)(=O)N3CCCCC3)cc21)NCc1ccc(Cl)cc1
CN(C(=O)c1cc2c(s1)-c1ccc(Cl)cc1SC2)c1cccc(C(F)(F)F)c1
CC(=O)c1ccc(NC(=O)c2ccc(-c3nc(CSc4ccccc4)c(C)o3)cc2)cc1
COc1cc(NC(=O)c2cc(C)nc3c2c(C)nn3-c2ccccc2Cl)cc(OC)c1
COC(=O)c1cc(NC(=O)c2nn(C)c3c2COc2ccccc2-3)cc(C(=O)OC)c1
Nc1c(C(=O)Nc2ccc(F)c(F)c2)sc2nc(-c3ccncc3)ccc12
CCOC(=O)c1ccc(NC(=O)Nc2cc3c(cc2N2CCCC2)n(C)c(=O)n3C)cc1
O=C(Nc1ccc2nc(SCC(=O)N3CCCc4ccccc43)sc2c1)c1ccccc1
COc1ccccc1NC(=O)C1=C(C)Nc2nc(SCc3ccccc3F)nn2C1c1cccs1 (stereo not given)
Cc1nc2ccn(Cc3ccco3)c(=O)c2cc1C(=O)N1CCN(c2ccccc2)CC1
Cc1ccc(C2c3[nH]c4ccccc4c3CCN2C(=O)CCC2CCCC2)cc1 (stereo not given)
O=C(Nc1cccc(C(=O)OCc2cc(=O)n3c4c(sc3n2)CCCC4)c1)c1ccccc1
CCCNC(=O)CCSc1nc(-c2ccc3c(c2)OCO3)cc(C(F)(F)F)n1
COc1cc(CCC(=O)NCc2ccc3c(c2)CCN3C(=O)c2ccc(F)cc2)cc(OC)c1OC
